Source: the supplement of paper PMC3334620
Whole data set: some 33,000 sequences, median “E-score (-0.5 to 0.5)” near -0.041, cut for the highest 2% near 0.37. This is one part of the list.

Biological target: T1, Ecm22 (UniProt Q05958)
T1 sequence: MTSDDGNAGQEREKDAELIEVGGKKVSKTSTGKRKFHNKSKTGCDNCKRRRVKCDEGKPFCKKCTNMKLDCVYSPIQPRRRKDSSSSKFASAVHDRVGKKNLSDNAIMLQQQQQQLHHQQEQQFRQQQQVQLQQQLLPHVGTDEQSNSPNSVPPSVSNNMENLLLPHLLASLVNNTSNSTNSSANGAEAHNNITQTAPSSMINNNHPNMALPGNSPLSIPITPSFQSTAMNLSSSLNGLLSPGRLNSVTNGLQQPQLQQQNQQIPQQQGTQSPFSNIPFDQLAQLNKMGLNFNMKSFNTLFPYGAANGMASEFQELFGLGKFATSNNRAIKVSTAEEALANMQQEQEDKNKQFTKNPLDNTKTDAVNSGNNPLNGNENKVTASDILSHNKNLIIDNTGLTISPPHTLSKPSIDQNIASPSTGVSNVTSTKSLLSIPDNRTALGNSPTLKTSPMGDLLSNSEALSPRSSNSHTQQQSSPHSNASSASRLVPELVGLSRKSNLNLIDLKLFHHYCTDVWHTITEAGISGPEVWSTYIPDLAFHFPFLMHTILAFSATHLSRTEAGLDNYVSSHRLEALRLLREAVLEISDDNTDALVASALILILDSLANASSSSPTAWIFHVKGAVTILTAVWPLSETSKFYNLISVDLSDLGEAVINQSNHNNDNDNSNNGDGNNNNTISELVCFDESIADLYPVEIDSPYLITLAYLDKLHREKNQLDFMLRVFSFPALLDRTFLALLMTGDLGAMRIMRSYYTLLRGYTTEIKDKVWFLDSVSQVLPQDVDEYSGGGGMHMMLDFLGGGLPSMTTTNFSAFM
Assay: PBM E-score (8-mer binding enrichment) (E-score (-0.5 to 0.5)); higher = stronger / more preferred TF binding; most listed sequences are background and not binding sites
Details: protein concentration: 200 nM; construct: GST-full length
Summary of the method: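 PURExpress in vitro transcription/translation supplied GST-tagged yeast transcription factors, either full-length or DNA-binding domain. Applied at about 100-200 nM to universal all-10-mer Agilent arrays double-stranded by primer extension, the bound protein was detected with fluorescent anti-GST. E-scores, modified Wilcoxon-Mann-Whitney statistics, were given by the Universal PBM Analysis Suite to ungapped eight-base words pooled with their reverse complements after masliner normalisation.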

Sequence	PBM E-score
CCGCACCC	0.00227
CGCCGACC	-0.0626
ACGCCCAG	-0.143
CGAAGAGA	0.195
AGGCATCA	-0.308
TCAGATAA	-0.112
AGAAAGCT	-0.0203
CCGCTAGA	-0.246
CTGGATGA	-0.2
GGGACTGA	-0.253
AGAAGGTG	-0.0146
GGGGTAAA	-0.0088
AGTAGGAG	-0.327
AATCCGTA	0.207
GCACCCTA	-0.149
AATCTTTC	-0.042
GTATGAAC	0.234
AATCACTG	0.0296
GCTGGGAC	-0.174
ACACTCGG	0.209
ATACACTG	0.0426
GACATACC	-0.182
AGGTCTGG	-0.203
AAGACACT	-0.00082
CGCGAGCG	0.176

Sequence	PBM E-score
ATGAGAAT	-0.0978
ATATACCC	-0.0184
AGTTCTTA	-0.125
CGCACGAG	-0.0614
CTATACAG	0.0413
CACGTCTA	-0.185
GGTTATAC	0.352
CACTGCTC	-0.159
CGGTGCGC	-0.0201
GGCTCTGA	-0.157
ATCACTTA	-0.064
GTGGGGCA	0.0451
ATTAATCG	0.207
TCTCATCA	-0.216
CTGTAGGC	-0.209
CTTACTTA	-0.194
CACGTTAC	-0.046
CTACACTA	-0.074
GGTGTAAA	-0.139
ATAGTTAC	0.0999
AACCAACC	-0.138
ACAGGTCG	-0.0344
AATTGTGG	-0.112
CTACGGCA	0.1
GATTTAAC	0.0377

Sequence	PBM E-score
GTCGTTCA	0.448
CCGGCCAA	-0.11
GGTTTCTA	-0.0898
CTGTGTTA	0.0507
ATTATCCA	0.0479
CTACATAC	0.00127
CGGCGAGA	0.118
ATGCCACC	-0.143
ATTATAGC	-0.098
CCTGCATC	-0.0617
AATGCCAG	-0.221
ACGATACT	0.313
ATGCGTAG	0.00117
TATATGCA	-0.0352
CGCCAGCA	-0.0703
GTAGTAGA	0.0331
CAACAACA	-0.0129
CAGTGGAC	-0.178
ATGCCTCA	-0.104
CGGAGCAG	0.0775
GCTGGCGA	0.00693
TAGTCGAA	-0.0259
AGTACGAA	0.42
CCAATGTC	-0.155
ACCGGACC	0.238

Sequence	PBM E-score
GGTCAAAA	0.016
CCCAGGGC	-0.339
CATGGCTC	0.00071
CATGTGAA	-0.25
GGAATGTA	0.0494
GACTCTGC	-0.00998
CTACCTAA	-0.072
AGCTGGAC	-0.188
AAAACTAC	0.12
AACAGGAT	-0.258
AAAAGGAA	0.123
GGGCCAAC	-0.241
CTTTGGCA	-0.144
GCGTCCCC	-0.389
CATGGTGA	-0.036
CGCTCGAG	-0.0217
AGGGTGGC	-0.225
ACTCGCCT	0.00923
CTACTCCA	0.0216
GACTGAGA	0.0567
ACCGACCT	0.0975
CCCTAGTA	-0.126
CTCCACGC	-0.228
GATAACAA	-0.0404
GAAGACTA	-0.0278

Sequence	PBM E-score
GATGGCCC	-0.193
GCTACTTA	-0.102
ACTAACGG	-0.141
ATGGCGTA	0.182
CGACATAA	0.227
AGCTATAC	0.124
ACCGATGG	0.0239
GAAGTTGC	0.0168
CTCGCAGC	0.0777
GTAGGCCA	-0.0732
AGATGCTC	0.0786
CAGTGGCG	-0.168
ACGTGTTG	0.112
CGTCCCAG	-0.339
AACCTGAC	-0.0885
AGGACTCA	-0.0869
AGACCTCA	-0.228
ATGGCTCA	-0.138
AATGTCCT	-0.094
CGCATGCC	0.0989
CACGATCA	-0.00633
ACCTGCGG	-0.16
AGGTACTC	-0.0124
AGCTGAAA	-0.106
ACTCGTGC	0.0518

Sequence	PBM E-score
GAAGTTTA	0.0811
AGTCGGCG	0.0443
GAGGGATC	-0.0216
CCCAACGA	-0.0238
ACCTTAGT	-0.211
GACGACTC	-0.0985
TAAGCAGA	-0.188
CCAACGCA	-0.125
ATCCTAAA	0.0576
GGACATGA	-0.0431
ACAACTAA	0.0503
GCAAGTCA	-0.117
ACTGACAA	-0.101
ACCTAATA	0.229
TCGGGGCA	-0.073
TCATCGGA	-0.0141
GTGCTTAA	-0.096
CCAGAAGG	-0.136
GACCTCCC	-0.144
ACATTTTC	-0.055
ATCGTCAC	-0.00661
TAGGATAA	0.0736
CGCTAACC	0.0848
AAATAAGG	0.0436
AGCTCCAC	-0.105

Sequence	PBM E-score
AGGAAGAC	-0.25
ACACGATG	0.17
GGTATAAC	0.0372
GCATTAAC	0.0478
ACGCCTCA	-0.176
ATCGGCGC	0.0415
GTTACTTA	-0.0193
AGTTTTAG	-0.164
GCGCCCGA	0.0828
AAGACGCA	-0.186
CACCAGAG	-0.0293
TAGCGACA	0.191
CAGCTCGG	0.131
GTATCGGA	0.199
ACACGAAT	0.217
AAGCCAGA	-0.18
AACCTAAT	-0.0523
ATTCCGCG	-0.0423
ACTACCGA	0.0453
CTGCCTGA	-0.168
AATATGAA	-0.149
CACGGAAA	0.0529
